# Reference: the supplement of paper PMC11417369
# The list shows a part of the results.
# Tested on: PF3D7_0420300 AP2 domain 1 (GST-tagged)
# Assay: gcPBM binding intensity (ln(normalized median fluorescence intensity)); higher = stronger DNA binding
# Procedure, shortened: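 Using an Agilent 4 × 180k array, primer-extended double-stranded 36-bp intergenic genomic probes and negative controls were exposed for 1 h to GST-fused P. falciparum DNA-binding domains expressed in E. coli. Binding was carried out in 1× PBS with 1% milk, 0.2 mg/ml BSA, 0.5% salmon testes DNA and 0.03% Triton X-100, and protein was detected with Alexa488 anti-GST antibody and a 488 nm scan. Binding intensity is the highest Masliner-normalised natural-log median intensity across replicate spots of either probe orientation.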
row,Sequence,gcPBM binding intensity (ln)
1,AATAATCATGATCAAAGTACTTATGAATACCAAAAA [XGTACX_site2572],9.3
2,TAATCTTTCGTACATGTACACACAGAAAAAAAAAAA [CACACA_site8798],9.34
3,TGCATGCATTATCATAGTACATATAATGTTGTATAA [XGTACX_site2775],9.05
4,ATTATTAAGTTTCACAAGAACATTGTTAACAATTTT [CACACA_negctrl_site1128],9
5,TATTAAGTATTTTACGTACACACTTATAAATGTACA [CACACA_site3885],9.28
6,AATTTATATTTTCGTAGTACGTATTTTATTCTTTTG [XGTACX_site4162],9.43
7,TATAAGGTGTCCTATACACACTCCAATAGATATATA [CACACA_site7066],9.17
8,CTGAACCCGTTATGGTGTACATAAAATAAGACACAG [XGTACX_site3484],9.18
9,ATTACATGCAATATATGTACGTAATATATATATATA [XGTACX_site2300],9.17
10,TTTTTATTCGATGATCAAATAGGTATATACAAAAAA [CACACA_negctrl_site1813],9.01
11,AATAATAATAGTAATATGTACATATATATATATATA [TGCATGCA_negctrl_site542],9.23
12,TATAAGCAAAAACACACACACATATATATATATATA [CACACA_site3804],9.65
13,TTATTTAAAAAAAAGTGTACCCATATATTATAAATC [XGTACX_site8374],9.17
14,TAATATTATAGATAAACACACATACACATGTAAATA [CACACA_site7049],9.68
15,AAATGAAATTTGTATACACACAAATATATATATATA [CACACA_site836],9.38
16,GCATCCCTTTTTATGTGTACATACAAAGGCAATTAC [XGTACX_site6977],9.28
17,AAAATATAAATCTAAGCATGCAAAAAAAATTTATAA [TGCATGCA_site1008],9.13
18,TATTGTTTTAAAGAGACATGCAATATATATTATTCC [TGCATGCA_site752],9.06
19,TAAACGTTAGTATGTGTGCACATTAGTAATTTAAAA,9.52

row,Sequence,gcPBM binding intensity (ln)
1,TTTTTATTATTCTTAAGGATATAACAAAAAAGAAAA [XGTACX_negctrl_site584],8.81
2,ATTAATATTATTAGAAGTACTAATAGTAGTATAACT [XGTACX_site1325],9.14
3,TTCTAAAAAAATAAAATTATCAAGGTTTTTAAACGT [CACACA_negctrl_site308],8.93
4,TCAAAGCACACATACACACACATATAGATTTATATA [CACACA_site6272],9.89
5,TAAATAAATATATATTCACACACAAACATATATATA [CACACA_site9332],9.68
6,TCTTCATAAAAATAAAGTACATTATATATATAAATA [XGTACX_site3775],8.96
7,TTTATTTATAGACACACACACAAAAAAAAAAAAAAA [CACACA_site7280],9.57
8,TTGTATATATATGGAAAAATATATATATATATATAT [GTGCAC_negctrl_site591],9.04
9,CATTTATATTATAAATGTACAAAGTTCGTTTGTTCC [XGTACX_site1305],9.17
10,TTTTTTTTTTTTTTTATAAAAGATAATTTTTTTTTA [CACACA_negctrl_site133],8.45
11,TGTCTTTAAATTTCTCAACACACAGTTATAAAAAAT [CACACA_site8930],9.18
12,GGGTCAAGTAAGCTGTTCCTCTTTTTCTTTCTCACT [GTGCAC_negctrl_site473],9.7
13,TATAAATTTAAAATGACACACACTAATATTATTTAA [CACACA_site8334],9.6
14,ATACGATTGAAACATTGTACATGAATATAAAAAAAT [XGTACX_site5704],9.31
15,TTATTACATGTTACTTAACACACATCTGGTGAAATA [CACACA_site7939],9.4
16,GGAAAGACAGTTCACAGTACCCAGTAAACTCTACGG [XGTACX_site2557],9.16
17,AAAATATAGTAATATATATATGTATATTATTTGTGG [CACACA_negctrl_site1590],9.17
18,ATATATAATATTTTTATTTTTATTTTTTTTTTATGA [TGCATGCA_negctrl_site577],9.01
19,ATTAAGTTCAAATGTAGTACGTGTAAAAAAAAAAAA [XGTACX_site1578],9.18

row,Sequence,gcPBM binding intensity (ln)
1,TACCATGTTCAAATTACACACATATAATGTAATATA [CACACA_site5150],9.39
2,TTTATATATGTAAATGCACACATATGTGTATATACT [CACACA_site8493],9.49
3,AAAATAAATAAATAAATAAATATATATATATATATA [XGTACX_negctrl_site345],9.03
4,TATAGGTATATATTATGTACTTATAATTATATAGAT [XGTACX_site1912],9.07
5,GAAATATTTAGACACACACACAAACATATAAATATA [CACACA_site6980],9.98
6,ATGTTGTGTATATATACACACATACATATATATATA [CACACA_site8461],9.52
7,GATTATATTATATATTAAATATAAATATGTATTATA [TGCATGCA_negctrl_site66],9.05
8,AATGGAAATGTAAAATGTACAGGACGCACACACATA [XGTACX_site7788],9.66
9,AAAAAAAATTAAAATAAATTAAAAAGTAATTATATA [GTGCAC_negctrl_site615],9.01
10,AATGAGAAGGACTGCACACTAAAATGGAAGGAGAAA [CACACA_site1575],9.55
11,GAAAAAATTTTATGGTGTACTTTATTTATTTATATA [XGTACX_site6323],9.4
12,TTTTTTTTTTTCTTAGTGCGCGTGAAAAATATAAAA,8.75
13,AATTAGATTATGCACACACACTTAAAAATAATAAAT [CACACA_site7015],9.81
14,TTACTCAAACAAACAAAAAAAAAAAAAAAAAAAAAA [TGCATGCA_negctrl_site457],8.48
15,ATATATAGAATGTGTACACACATATGTATTTATATA [CACACA_site810],9.51
16,ATTTTTTATGGACAAAAGACCTCTGATGTAAATATA [CACACA_negctrl_site1081],8.97
17,TACTATAACGCACATACACACAAAAAAAAAAAAAAA [CACACA_site8073],9.45
18,TATATATATATTTTTGCATGTAATTTTTATGAGGAC [TGCATGCA_site884],9.13
